Test results as given in paper PMC4336329 (PLoS ONE, 2015).
The campaign covered roughly 310,000 compounds. About 14,000 (4.5%) showed an effect of 50% or more. Effects have a minus sign here. The list shows a part of the results.
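Note: peak tail current of the secondary pulse compared with the same well before compound.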

These compounds were tested against human ether-à-go-go-related gene (hERG) potassium channel (human, UniProt Q12809) (assay: primary screen, population patch clamp on CHO cells stably expressing hERG).
Sequence of human ether-à-go-go-related gene (hERG) potassium channel (Q12809 whole entry, looked up): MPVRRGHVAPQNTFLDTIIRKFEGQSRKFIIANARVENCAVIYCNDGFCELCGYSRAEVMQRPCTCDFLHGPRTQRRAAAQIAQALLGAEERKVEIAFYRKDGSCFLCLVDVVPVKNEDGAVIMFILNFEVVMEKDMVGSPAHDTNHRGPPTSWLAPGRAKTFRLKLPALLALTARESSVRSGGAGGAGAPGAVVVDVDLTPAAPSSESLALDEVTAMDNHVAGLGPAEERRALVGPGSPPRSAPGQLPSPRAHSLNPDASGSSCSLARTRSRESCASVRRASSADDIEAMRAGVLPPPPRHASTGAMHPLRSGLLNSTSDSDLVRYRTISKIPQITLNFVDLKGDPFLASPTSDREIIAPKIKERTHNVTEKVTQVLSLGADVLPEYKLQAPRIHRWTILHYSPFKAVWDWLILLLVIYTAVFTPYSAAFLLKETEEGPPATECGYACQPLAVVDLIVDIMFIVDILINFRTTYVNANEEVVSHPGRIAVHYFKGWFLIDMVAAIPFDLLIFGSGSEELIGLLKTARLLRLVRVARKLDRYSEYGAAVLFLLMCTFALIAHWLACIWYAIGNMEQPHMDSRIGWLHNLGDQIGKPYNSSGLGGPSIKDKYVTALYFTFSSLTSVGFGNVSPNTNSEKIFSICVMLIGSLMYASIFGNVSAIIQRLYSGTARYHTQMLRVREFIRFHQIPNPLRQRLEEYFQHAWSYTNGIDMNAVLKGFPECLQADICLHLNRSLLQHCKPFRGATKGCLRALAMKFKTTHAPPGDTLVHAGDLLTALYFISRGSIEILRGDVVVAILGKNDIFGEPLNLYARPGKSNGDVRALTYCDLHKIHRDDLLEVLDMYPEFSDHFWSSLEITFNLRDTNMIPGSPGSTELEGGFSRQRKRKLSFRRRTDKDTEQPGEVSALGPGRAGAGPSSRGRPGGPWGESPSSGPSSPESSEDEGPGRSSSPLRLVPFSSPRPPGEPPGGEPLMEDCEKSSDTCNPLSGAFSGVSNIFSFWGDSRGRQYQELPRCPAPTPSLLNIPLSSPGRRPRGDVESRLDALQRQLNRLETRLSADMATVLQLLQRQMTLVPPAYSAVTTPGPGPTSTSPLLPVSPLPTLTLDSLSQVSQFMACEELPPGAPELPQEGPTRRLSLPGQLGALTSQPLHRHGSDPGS
With `Cc1c2cnn(CC(=O)N3CCC4(CC3)OCCO4)c(=O)c2c(C)n1Cc1cccc(Cl)c1` the “hERG current change (%, negative = inhibition) at 10uM” value was 1.18%.
With `CC(=O)N1N=C(c2c(O)n(C)c(=O)n(C)c2=O)CC1c1ccccc1` (stereo not drawn) the “hERG current change (%, negative = inhibition) at 10uM” value was 17.5%.
With `Cn1nc(C(=O)NCc2cccc(Cl)c2)c2c1-c1ccccc1S(=O)(=O)C2` the “hERG current change (%, negative = inhibition) at 10uM” value was 9.4%.
In the case of `CCC(=O)Nc1cccc(-n2nnnc2SCC(=O)c2ccc(C)c(C)c2)c1`, the “hERG current change (%, negative = inhibition) at 10uM” value is reported as -13.5%.
For `Cc1ccc(NC(=O)CN2C(=O)COc3ccc(S(=O)(=O)N4CCOCC4)cc32)cc1F`, the “hERG current change (%, negative = inhibition) at 10uM” value was 19.9%.
`COc1ccc(OC)c(S(=O)(=O)NCc2ccccn2)c1` was tested, and the “hERG current change (%, negative = inhibition) at 10uM” value was 11.9%.
For `O=C(Oc1cc(=O)oc2ccccc12)c1ccco1`, the “hERG current change (%, negative = inhibition) at 10uM” value was 9.06%.
`C=CCNC(NC(=O)c1ccccc1)(C(=O)OCC)C(F)(F)F` (stereo not drawn) was tested, and the “hERG current change (%, negative = inhibition) at 10uM” value was 19.2%.
With `O=c1c2ccccc2nc(-c2ccccc2)n1-c1ccncc1` the “hERG current change (%, negative = inhibition) at 10uM” value was -14.9%.
`Cc1cccc(C)c1NC(=O)CN(C)c1ccc(C(F)(F)F)cn1` was tested, and the “hERG current change (%, negative = inhibition) at 10uM” value was 1.18%.
`CCOc1ccc(OCC)c(NC(=O)C2CCCN(c3nc(C)cc(C)n3)C2)c1` (stereo not drawn) was tested, and the “hERG current change (%, negative = inhibition) at 10uM” value was -3.69%.
In the case of `Nc1c(S(=O)(=O)c2ccccc2)nnn1-c1ccccc1`, the “hERG current change (%, negative = inhibition) at 10uM” value is reported as 5.69%.
In the case of `CCCNC(=O)C(NS(=O)(=O)c1cccc2nsnc12)c1ccccc1` (stereo not drawn), the “hERG current change (%, negative = inhibition) at 10uM” value is reported as 0.65%.
With `COc1ccc(-c2[nH]c3ccccc3c2SCCNC(=O)c2cc3ccccc3oc2=O)cc1` the “hERG current change (%, negative = inhibition) at 10uM” value was -0.175%.
In the case of `CC(NC(=O)CN(c1ccc(Br)cc1)S(C)(=O)=O)c1ccccc1` (stereo not drawn), the “hERG current change (%, negative = inhibition) at 10uM” value is reported as -4.37%.
For `CC(C)[C@H](NC(=O)N1c2ccccc2NC(=O)[C@@H]1C(C)C)C(=O)N[C@H](C(=O)O)c1ccccc1`, the “hERG current change (%, negative = inhibition) at 10uM” value was -5.05%.
`Cc1nc(SCC(N)=O)c([N+](=O)[O-])[nH]1` was tested, and the “hERG current change (%, negative = inhibition) at 10uM” value was -31.7%.
With `CC(C)N(C(=O)CSc1nnc(Cc2csc(Nc3ccccc3)n2)o1)C(C)C` the “hERG current change (%, negative = inhibition) at 10uM” value was 18.1%.
With `O=C(CSc1ccccn1)c1ccc(F)cc1` the “hERG current change (%, negative = inhibition) at 10uM” value was -22.6%.
With `COC(=O)[C@@H]1[C@@H](C)OC(=O)N[C@H]1c1ccccc1` the “hERG current change (%, negative = inhibition) at 10uM” value was -11.7%.
`COc1cc(/C=C2\SC(N3CCc4ccccc4C3)=NC2=O)cc(OC)c1OC` was tested, and the “hERG current change (%, negative = inhibition) at 10uM” value was -8.19%.
`COc1ccccc1NC(=O)C1CCN(S(=O)(=O)c2ccc3c(c2)NC(=O)C(C)S3)CC1` (stereo not drawn) was tested, and the “hERG current change (%, negative = inhibition) at 10uM” value was 0.624%.
`COc1ccc2oc(C(=O)N(CC(C)C)C3CCS(=O)(=O)C3)c(C)c2c1` (stereo not drawn) was tested, and the “hERG current change (%, negative = inhibition) at 10uM” value was -23.5%.
In the case of `COc1cccc(OC)c1C(=O)OCC(=O)Nc1ccc(OC(F)(F)F)cc1`, the “hERG current change (%, negative = inhibition) at 10uM” value is reported as -28.9%.
`O=C(N/C(=C/c1ccc(Br)cc1)C(=O)N1CCCC1)c1ccccc1F` was tested, and the “hERG current change (%, negative = inhibition) at 10uM” value was -71.5%.
With `CC(NC(=O)c1cc2ccccc2o1)c1cccs1` (stereo not drawn) the “hERG current change (%, negative = inhibition) at 10uM” value was -15.6%.
In the case of `Cc1nnc2sc(SCC(=O)Nc3ccc(Br)cc3)nn2c1=O`, the “hERG current change (%, negative = inhibition) at 10uM” value is reported as 2.87%.
For `Cc1ccc(S(=O)(=O)NC(C(=O)O)c2ccccc2)cc1` (stereo not drawn), the “hERG current change (%, negative = inhibition) at 10uM” value was 15.1%.
`FC(F)(F)c1cnc(Oc2ccc(-c3nnco3)cc2)c(Cl)c1` was tested, and the “hERG current change (%, negative = inhibition) at 10uM” value was 7.1%.
With `NC(=O)c1nsc(C(=O)N(c2ccccc2)C(C(=O)NC2CCCCC2)c2ccc(O)cc2)c1N` (stereo not drawn) the “hERG current change (%, negative = inhibition) at 10uM” value was 2.65%.
`CC(=O)Nc1ccc(NC(=O)C2CCCN2/C=C/C(=O)C(F)(F)F)cc1` (stereo not drawn) was tested, and the “hERG current change (%, negative = inhibition) at 10uM” value was 7.83%.
In the case of `COC(=O)N/N=C/c1cc(Cl)cc(Cl)c1OCc1ccc(F)cc1`, the “hERG current change (%, negative = inhibition) at 10uM” value is reported as 3.82%.
With `COc1ccc(S(=O)(=O)Nc2nc3n(n2)C(c2ccc(Cl)cc2)CC(=O)N3)cc1` (stereo not drawn) the “hERG current change (%, negative = inhibition) at 10uM” value was 7.32%.
In the case of `O=C(Nc1ccccc1C(=O)NCc1cccnc1)c1cccc([N+](=O)[O-])c1`, the “hERG current change (%, negative = inhibition) at 10uM” value is reported as -1.36%.
In the case of `O=C(COc1ccccc1)N1CCN=C1SCc1ccccc1`, the “hERG current change (%, negative = inhibition) at 10uM” value is reported as -16.8%.
With `O=C(CN1C(=O)c2ccc([N+](=O)[O-])cc2C1=O)NCc1ccco1` the “hERG current change (%, negative = inhibition) at 10uM” value was 12.4%.
`Cn1cc(S(=O)(=O)NC(c2ccccc2)c2ccccc2)c(=O)n(C)c1=O` was tested, and the “hERG current change (%, negative = inhibition) at 10uM” value was -3.83%.
In the case of `O=C1c2ccccc2C(=O)N1CC(=O)N1c2ccccc2Sc2ccccc21`, the “hERG current change (%, negative = inhibition) at 10uM” value is reported as -28.7%.
In the case of `O=C(Cc1ccc(Cl)cc1)Nc1ccc(N2CCN(C(=O)c3ccco3)CC2)c(Cl)c1`, the “hERG current change (%, negative = inhibition) at 10uM” value is reported as -10.4%.
For `CCOc1cccc(OCCOCCOc2ccccc2C(C)=O)c1`, the “hERG current change (%, negative = inhibition) at 10uM” value was -7.23%.
With `OCC[C@@H]1C[C@@H](O)[C@H](O)[C@@]2(CCc3ccccc3CO2)O1` the “hERG current change (%, negative = inhibition) at 10uM” value was 12.2%.
In the case of `O=C(NCc1cccnc1)Nc1ccccc1Cl`, the “hERG current change (%, negative = inhibition) at 10uM” value is reported as 17.9%.
`COc1ccc(-n2c(SCC(=O)Nc3ccc(C(=O)O)cc3)nnc2-c2ccccc2)cc1OC` was tested, and the “hERG current change (%, negative = inhibition) at 10uM” value was -3.47%.
`CCCN(CCC)CCN1C(=O)C2C(C(=O)Nc3cccc(SC)c3)C3C=CC2(O3)C1C(=O)NC1CCCCC1` (stereo not drawn) was tested, and the “hERG current change (%, negative = inhibition) at 10uM” value was -68.2%.
In the case of `CCOC(=O)c1ccc(CN2C(=O)c3ccccc3S2(=O)=O)cc1`, the “hERG current change (%, negative = inhibition) at 10uM” value is reported as -10.8%.
With `COc1ccc(CCN(C)CCC(=O)Nc2c(C)cc(C)cc2C)cc1OC` the “hERG current change (%, negative = inhibition) at 10uM” value was -58.8%.
With `CCn1c(N2CCC(Cc3ccccc3)CC2)nc2c1c(=O)[nH]c(=O)n2C` the “hERG current change (%, negative = inhibition) at 10uM” value was -39%.
In the case of `O=C(NNC(=S)NC(=O)c1cccc([N+](=O)[O-])c1)c1ccc(Br)cc1`, the “hERG current change (%, negative = inhibition) at 10uM” value is reported as 17.7%.
With `O=C(NCCCN1CCOCC1)C(=O)N/N=C/c1ccccc1O` the “hERG current change (%, negative = inhibition) at 10uM” value was 4.52%.
For `COc1ccc(CNC(C)(C)C)cc1Cl.Cl`, the “hERG current change (%, negative = inhibition) at 10uM” value was -21.6%.
In the case of `COc1ccc2cc(C(=O)N3CCN(C)CC3)[nH]c2c1`, the “hERG current change (%, negative = inhibition) at 10uM” value is reported as 3.05%.
`CN1CCN(S(=O)(=O)c2ccc(Br)s2)CC1` was tested, and the “hERG current change (%, negative = inhibition) at 10uM” value was -8.26%.
`O=C(NCCc1ccccc1)C1CCN(c2nc3ccccc3o2)CC1` was tested, and the “hERG current change (%, negative = inhibition) at 10uM” value was -25.9%.
In the case of `CC(=O)Nc1ccc(SC[C@H](c2ccccc2)N2CCN(CCc3ccccc3)CCC2=O)cc1`, the “hERG current change (%, negative = inhibition) at 10uM” value is reported as -75.1%.
